# According to article PMC11342335, “An anti-sortilin affibody-peptide fusion inhibits sortilin-mediated progranulin degradation” (Frontiers in Immunology, 2024):
# B1: ABD-A3-PGRNC15* (His6-ABD035-G4S-A3-PGRNC15*) (designed binder)
# chain: LAEAKVLANRELDKYGVSDFYKRLINKAKTVEGVEALKLHILAALPGGGGSVDNKFNKEIEEAGAEIIQLPNLNRWQKGAFIVSLKDDPSQSANLLAEAKKLNDAQAPKRWDAPLRDPGLRQLL
# B2: ABD-A3-PGRNC3 (His6-ABD035-G4S-A3-PGRNC3) (designed binder)
# chain: LAEAKVLANRELDKYGVSDFYKRLINKAKTVEGVEALKLHILAALPGGGGSVDNKFNKEIEEAGAEIIQLPNLNRWQKGAFIVSLKDDPSQSANLLAEAKKLNDAQAPKQLL
# B3: ABD-A3-PGRNC6* (His6-ABD035-G4S-A3-PGRNC6*) (designed binder)
# chain: LAEAKVLANRELDKYGVSDFYKRLINKAKTVEGVEALKLHILAALPGGGGSVDNKFNKEIEEAGAEIIQLPNLNRWQKGAFIVSLKDDPSQSANLLAEAKKLNDAQAPKGLRQLL
# B4: ABD-A3-PGRNC9* (His6-ABD035-G4S-A3-PGRNC9*) (designed binder)
# chain: LAEAKVLANRELDKYGVSDFYKRLINKAKTVEGVEALKLHILAALPGGGGSVDNKFNKEIEEAGAEIIQLPNLNRWQKGAFIVSLKDDPSQSANLLAEAKKLNDAQAPKRDPGLRQLL
# B5: ABD-A3-PGRNC12* (His6-ABD035-G4S-A3-PGRNC12*) (designed binder)
# chain: LAEAKVLANRELDKYGVSDFYKRLINKAKTVEGVEALKLHILAALPGGGGSVDNKFNKEIEEAGAEIIQLPNLNRWQKGAFIVSLKDDPSQSANLLAEAKKLNDAQAPKAPLRDPGLRQLL
# B6: ABD-A3-PGRNC18* (His6-ABD035-G4S-A3-PGRNC18*) (designed binder)
# chain: LAEAKVLANRELDKYGVSDFYKRLINKAKTVEGVEALKLHILAALPGGGGSVDNKFNKEIEEAGAEIIQLPNLNRWQKGAFIVSLKDDPSQSANLLAEAKKLNDAQAPKEAPRWDAPLRDPGLRQLL
# B7: ABD-A3-PGRNC21* (His6-ABD035-G4S-A3-PGRNC21*) (designed binder)
# chain: LAEAKVLANRELDKYGVSDFYKRLINKAKTVEGVEALKLHILAALPGGGGSVDNKFNKEIEEAGAEIIQLPNLNRWQKGAFIVSLKDDPSQSANLLAEAKKLNDAQAPKLRREAPRWDAPLRDPGLRQLL
# Biological target: T1, sortilin on the surface of U-251 and PC-3 cells (human (endogenous in U-251 and PC-3), UniProt Q99523 78-831)
# T1 sequence (looked up): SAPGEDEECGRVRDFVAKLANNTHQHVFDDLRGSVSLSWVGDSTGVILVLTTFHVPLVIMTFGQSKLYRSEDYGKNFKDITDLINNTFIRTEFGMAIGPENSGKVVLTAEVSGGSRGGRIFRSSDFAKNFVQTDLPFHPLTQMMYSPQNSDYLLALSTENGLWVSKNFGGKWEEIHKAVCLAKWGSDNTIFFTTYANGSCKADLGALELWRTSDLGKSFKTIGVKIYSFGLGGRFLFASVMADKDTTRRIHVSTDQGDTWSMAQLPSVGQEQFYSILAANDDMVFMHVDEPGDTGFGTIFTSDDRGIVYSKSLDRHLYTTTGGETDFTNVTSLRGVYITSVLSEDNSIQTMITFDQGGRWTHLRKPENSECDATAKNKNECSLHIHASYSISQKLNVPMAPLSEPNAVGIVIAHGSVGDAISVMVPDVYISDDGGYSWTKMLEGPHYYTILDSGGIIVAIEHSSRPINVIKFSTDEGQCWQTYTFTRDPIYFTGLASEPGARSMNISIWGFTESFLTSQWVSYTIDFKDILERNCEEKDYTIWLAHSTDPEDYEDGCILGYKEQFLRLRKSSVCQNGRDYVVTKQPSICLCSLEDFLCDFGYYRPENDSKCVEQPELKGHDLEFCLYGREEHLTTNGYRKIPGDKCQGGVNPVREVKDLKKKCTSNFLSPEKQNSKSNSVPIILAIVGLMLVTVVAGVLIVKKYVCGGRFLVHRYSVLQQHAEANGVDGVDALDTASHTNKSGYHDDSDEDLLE
# Experiment: cell-based or functional assay
# Settings: not given
Binder,PGRN clearance assay: EC50 of the increase of extracellular PGRN (ELISA) after 72 h on U-251 cells; the pair blocked is sortilin and secreted PGRN,"PGRN clearance assay: fold increase of extracellular PGRN (ELISA) against untreated U-251 cells after 72 h, increasing concentrations up to 500 nM"
B1,1.3 nM,2.5 fold

# Biological target: T2, human sortilin (R&D Systems, 3154-ST) (human, UniProt Q99523 78-755)
# T2 construct: sortilin, human, recombinant protein bought from R&D Systems (3154-ST); also called hSort; SORT1; source: bought: R&D Systems (3154-ST)
# T2 sequence (looked up): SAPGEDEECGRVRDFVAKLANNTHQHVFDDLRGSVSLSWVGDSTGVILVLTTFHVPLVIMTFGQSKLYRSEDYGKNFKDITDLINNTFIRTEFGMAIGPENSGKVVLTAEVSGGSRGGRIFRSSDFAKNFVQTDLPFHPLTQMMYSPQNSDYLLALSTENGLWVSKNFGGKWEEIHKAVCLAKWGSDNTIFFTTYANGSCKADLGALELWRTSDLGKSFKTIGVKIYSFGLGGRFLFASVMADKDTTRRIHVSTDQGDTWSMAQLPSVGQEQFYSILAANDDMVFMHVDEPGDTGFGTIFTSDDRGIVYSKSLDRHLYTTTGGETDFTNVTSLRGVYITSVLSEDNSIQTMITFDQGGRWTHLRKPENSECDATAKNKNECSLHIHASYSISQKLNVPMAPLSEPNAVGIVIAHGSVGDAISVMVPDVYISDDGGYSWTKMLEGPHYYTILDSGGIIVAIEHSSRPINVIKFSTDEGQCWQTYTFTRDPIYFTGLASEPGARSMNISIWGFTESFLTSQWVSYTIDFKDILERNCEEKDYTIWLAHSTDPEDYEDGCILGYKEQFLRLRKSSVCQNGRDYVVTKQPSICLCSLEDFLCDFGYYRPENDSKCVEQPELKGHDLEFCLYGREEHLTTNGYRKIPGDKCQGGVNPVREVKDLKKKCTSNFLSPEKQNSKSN
# Experiment: SPR; Biacore 8K, affinity determination of second-generation constructs; 30-100 RU of ABD035-containing constructs captured on immobilised HSA (CM5); 1-200 nM human sortilin injected 180 s at 30 µl/min, 25°C, PBST; 60 min dissociation; 1:1 Langmuir fit; apparent constants; n=3 technical replicates
# Settings: both partners purified
Binder,Kd,koff,kon
B1,0.185 nM,5.94e-05 s⁻¹,321000 M⁻¹ s⁻¹
B2,3.93 nM,0.00295 s⁻¹,752000 M⁻¹ s⁻¹
B3,0.289 nM,8.09e-05 s⁻¹,281000 M⁻¹ s⁻¹
B4,0.224 nM,5.95e-05 s⁻¹,265000 M⁻¹ s⁻¹
B5,0.251 nM,7.12e-05 s⁻¹,283000 M⁻¹ s⁻¹
B6,0.217 nM,6.69e-05 s⁻¹,308000 M⁻¹ s⁻¹
B7,0.215 nM,6.98e-05 s⁻¹,325000 M⁻¹ s⁻¹
